Publication PMC4336329 (PLoS ONE, 2015)
Out of some 310,000 compounds screened, about 14,000 (4.5%) showed an effect of 50% or more. Effects have a minus sign here. This is one part of the list. Where a SMILES comes first, the peptide text is derived from it. The star is where a group is joined. Boc = CC(C)(C)OC(=O)*; OtBu = CC(C)(C)O*

biological target: human ether-à-go-go-related gene (hERG) potassium channel (human, UniProt Q12809); test: primary screen, population patch clamp on CHO cells stably expressing hERG
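Also: peak tail current of the secondary pulse compared with the same well before compound.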

Sequence of human ether-à-go-go-related gene (hERG) potassium channel (Q12809 whole entry, looked up): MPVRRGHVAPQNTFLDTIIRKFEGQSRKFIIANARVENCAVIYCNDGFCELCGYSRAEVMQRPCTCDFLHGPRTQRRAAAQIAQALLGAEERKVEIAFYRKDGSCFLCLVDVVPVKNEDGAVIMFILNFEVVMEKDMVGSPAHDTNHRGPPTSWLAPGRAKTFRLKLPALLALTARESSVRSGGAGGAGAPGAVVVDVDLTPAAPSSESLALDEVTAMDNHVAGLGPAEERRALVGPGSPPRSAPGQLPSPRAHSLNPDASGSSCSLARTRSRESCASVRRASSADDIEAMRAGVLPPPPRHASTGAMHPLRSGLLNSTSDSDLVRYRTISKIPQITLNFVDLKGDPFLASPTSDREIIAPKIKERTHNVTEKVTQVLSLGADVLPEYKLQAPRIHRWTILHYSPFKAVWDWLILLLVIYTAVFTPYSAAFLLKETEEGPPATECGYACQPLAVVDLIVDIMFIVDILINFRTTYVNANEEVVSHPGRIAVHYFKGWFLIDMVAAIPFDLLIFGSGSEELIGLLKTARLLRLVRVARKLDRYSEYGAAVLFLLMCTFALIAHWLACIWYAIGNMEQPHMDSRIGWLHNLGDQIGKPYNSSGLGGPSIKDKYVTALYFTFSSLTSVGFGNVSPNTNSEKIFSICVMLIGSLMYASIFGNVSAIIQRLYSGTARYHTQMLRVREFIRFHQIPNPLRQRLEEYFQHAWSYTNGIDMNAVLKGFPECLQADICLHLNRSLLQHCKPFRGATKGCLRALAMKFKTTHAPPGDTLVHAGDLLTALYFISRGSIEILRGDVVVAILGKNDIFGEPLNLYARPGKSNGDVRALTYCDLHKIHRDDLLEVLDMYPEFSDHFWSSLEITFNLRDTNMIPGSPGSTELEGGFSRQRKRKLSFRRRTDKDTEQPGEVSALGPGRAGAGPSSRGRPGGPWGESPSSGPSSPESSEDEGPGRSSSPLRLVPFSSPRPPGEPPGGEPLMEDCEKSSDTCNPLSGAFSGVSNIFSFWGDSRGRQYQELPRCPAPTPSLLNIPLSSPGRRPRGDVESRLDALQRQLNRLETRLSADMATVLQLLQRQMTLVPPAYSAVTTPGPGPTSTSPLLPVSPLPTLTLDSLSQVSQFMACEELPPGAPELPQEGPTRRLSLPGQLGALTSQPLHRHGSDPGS

Compound | hERG current change (%, negative = inhibition) at 10uM
c1ccc2[nH]c(CN3CCOCC3)nc2c1 | 12%
Brc1ccc(OCc2nc(-c3ccccn3)n[nH]2)cc1 | -3.04%
NC(N)=NS(=O)(=O)c1ccc(NC(=S)NC(=O)c2ccc3c(c2)OCO3)cc1 | 10.3%
Nc1nc(N)c2ncc(C(=O)CCc3ccccc3)nc2n1 | -35.2%
Cl.O=C(NCCCn1ccnc1)c1cc(Cl)cc(Cl)c1 | -35.4%
CN(Cc1ccc(F)cc1)C(=O)c1cccc(OC2CCN(C3CCCC3)CC2)c1 | -61%
O=C(Nc1ccccc1)c1ccncc1 | 1.31%
O=C(NCCCN1CCOCC1)C(=O)NCc1ccco1 | -1.68%
Cn1c(CNC(=O)c2ccccc2)nnc1SCC(=O)Nc1nccs1 | 23.5%
CCC1=C(OC(=O)N(CC)CC)N2C(=O)OC(=NCC3CC3)[C@]2(C)[C@H]2C1=CC[C@H]1C(=O)N(C)C(=O)[C@H]12 | 3.39%
CCc1nnc(NC(=O)c2cc(C)nc3ccccc23)s1 | 8.79%
Cc1nc(SCC(=O)c2c[nH]c3ccccc23)n[nH]1 | 6.7%
CC(CN1CCCC1)OC(=O)c1ccc(Cl)cc1.Cl (stereo not shown) | -12.4%
COc1ccc(CCNC(=O)C2CCN(C(=O)c3ccccc3)CC2)cc1 | 2.13%
Clc1ccccc1/C=C/c1nc(-c2ccccn2)no1 | 7.15%
Cc1ccc(NC(=O)CN(C)S(=O)(=O)c2ccc3c(c2)n(C)c(=O)c(=O)n3C)c(C)c1 | -4.71%
Cn1ncc([N+](=O)[O-])c1C(=O)Nc1ccccc1Cl | 15.4%
CC(=O)Oc1ccc(/C=C(\NC(=O)c2ccco2)C(=O)NCc2ccccc2)cc1 | -68.3%
CC(C)c1ccc(NC(=O)C2=NNC(=O)CC2)cc1 | -19.3%
CCCCn1c(O)c(C(C)=NC(C)c2ccccc2)c(=O)[nH]c1=O (stereo not shown) | -22.3%
COc1cccc(CNC(=O)c2ccc(C3SCCS3)cc2)c1 | -18.9%
O=C(NCCc1ccccc1)C1CCN(c2ncccn2)CC1 | 1.28%

Compound | hERG current change (%, negative = inhibition) at 10uM
CC(=O)c1cccc(NS(=O)(=O)c2ccc(N/C=C\C(=O)c3ccc(F)cc3)cc2)c1 | 11.8%
COc1ccccc1NC(=O)CCN1C(=O)C2CC=CCC2C1=O (stereo not shown) | 8.33%
COC(C(=O)Nc1ccc(S(=O)(=O)Nc2c(C)cccc2C)cc1)c1ccccc1 (stereo not shown) | -74.6%
COCCCn1c(SCc2cccc(OC)c2)nc2cc(OC)c(OC)cc2c1=N | -12.4%
CC(=O)c1ccc(NC(=O)CN2CCCCCC2)cc1 | 13.4%
Cc1cccc(N2N=C(C(=O)Nc3ccc(Cl)c(S(=O)(=O)N4CCOCC4)c3)CCC2=O)c1 | -52.4%
O=[N+]([O-])c1c(N2CCN(CCO)CC2)nc2ccccn12 | 16.5%
CC(C)C[C@H](NC(=O)Nc1ccc2c(c1)OCCO2)C(=O)O | 15.9%
Cc1c(C(=O)NCc2cccnc2)oc2ccc(S(=O)(=O)N3CCCCCC3)cc12 | -38.3%
CCOC(=O)C1CCN(C(=O)CCS(=O)(=O)c2ccc3c(c2)CC(C)N3C(=O)CC)CC1 (stereo not shown) | 12%
Clc1ccc2ccc3cccnc3c2n1 | 13.8%
COC(=O)CN1C(=S)N(c2ccc(Cl)cc2)C(=O)C1CC(=O)Nc1ccccc1 (stereo not shown) | -7.08%
CN(C(=O)COC(=O)CCCN1C(=O)c2cccc3cccc(c23)C1=O)C1CCS(=O)(=O)C1 (stereo not shown) | -14.3%
COc1ccc(S(=O)(=O)N2CCCC(C(=O)NCc3ccco3)C2)cc1Cl (stereo not shown) | -23.5%
C=CCn1c(-c2ccccc2OCC)n[nH]c1=S | -9.73%
COc1cc(OC)cc(C(=O)NCc2ccc3c(c2)cc(C)n3C)c1 | 4.94%
O=C(O)c1cccc(-n2sc3ccccc3c2=O)c1 | 7.18%
COc1ccc(CCNC(=O)CSc2nc(O)c(CCC(C)C)c(=O)[nH]2)cc1OC | 0.815%
COCc1c(C(=O)OCc2nc3ccsc3c(=O)[nH]2)oc2ccccc12 | -13.8%
O=C(/C=C/c1ccc2c(c1)OCO2)NCCCN1CCOCC1 | -9.4%
C=CCNC(=O)COCc1cc(-c2ccc3c(c2)OCO3)on1 | -1.23%
Oc1ccc2ccccc2c1-c1sc(Nc2ccccc2)n[n+]1-c1ccc(F)cc1.[Cl-] | -0.475%

Compound | hERG current change (%, negative = inhibition) at 10uM
O=C(NC1CCC1)C1CCC(=O)N(Cc2ccccc2F)C1 (stereo not shown) | -1.77%
Cc1cc(-c2c(C)[nH]n(-c3ccc(Cl)cc3)c2=O)n[nH]1 | 9.37%
COc1ccc(S(=O)(=O)n2nc(-c3ccc(Cl)cc3)cc2N)cc1OC | 15.5%
C[C@@H]1O[C@@H](O[C@H]2[C@H](O)[C@@H](O)[C@H](Oc3c(-c4ccc(O)c(O)c4)oc4cc(O)cc(O)c4c3=O)O[C@@H]2CO)[C@H](O)[C@H](O)[C@H]1O | 23.1%
Cc1ccc(C(=O)NCc2ccc(F)cc2)s1 | -16.8%
O=C(NC(=S)Nc1ccccc1N1CCOCC1)c1ccc([N+](=O)[O-])cc1 | -1.82%
CCCN1C(=O)/C(=N\OCC(=O)NC23CC4CC(CC(C4)C2)C3)c2ccccc21 | 3.49%
O=C(O)C1CSC(CCc2ccccc2)N1 (stereo not shown) | 14%
Cc1ccc(N2CCN(c3ccc([N+](=O)[O-])cn3)CC2)c(C)c1 | 6.06%
C=CCn1c(SCc2cc(C(C)=O)ccc2OCC)nc2ccccc2c1=O | 1.85%
N#C/C(=C\N1CCOCC1)C(N)=O | 11.5%
COc1ccc(NC(=O)CC(C)NCCCN2CCCC2=O)cc1.O=C(O)C(=O)O (stereo not shown) | 11.8%
CC1CCN(C(=O)C2c3ccccc3C(=O)N3CCc4ccccc4C23)CC1 (stereo not shown) | 10.7%
CC(C)Sc1nc2c(c(=O)[nH]c(=O)n2C)n1Cc1ccc(Cl)cc1 | -13.3%
COC(=O)C(O)(c1ccc(NC(=O)Oc2ccccc2)cc1)C(F)(F)F (stereo not shown) | -10.5%
Cc1ccc(NC(=O)COC(=O)c2cccnc2)cc1 | 13.8%
O=C(c1ccco1)n1nc(-c2ccco2)nc1SCc1ccccc1 | 7.58%
COc1ccc(Cc2c(N)nc(C)nc2N)cc1 | 33.4%
CC(=O)NS(=O)(=O)c1ccc(NC(=O)c2oc3c(Cl)cccc3c2C)cc1 | 4.19%
COc1cc(NC(=O)c2ccc(Cl)cc2)c(OC)cc1Cl | 0.583%
O=C(NCc1ccc(Cl)cc1)C1CCN(S(=O)(=O)c2cccs2)CC1 | -3.7%
CCOC(=O)Nc1ccc(C)cc1Br | -13.3%

Compound | hERG current change (%, negative = inhibition) at 10uM
COc1ccc(-n2c(O)c(/C=C/C=Nc3ccccc3)c(=O)[nH]c2=O)cc1 | 10.9%
Cc1ccc(NC(=O)Nc2ccc(F)cc2F)c(OC(F)F)c1 | 21.1%
Cc1cc(NS(=O)(=O)c2ccc(NC(=O)C(C)Oc3ccccc3Cl)cc2)no1 (stereo not shown) | 0.736%
Cc1ccc(OCC(O)CN2CCc3ccccc3C2)c(C)c1.Cl (stereo not shown) | -72.3%
CC1CCN(c2cc(C#N)c(C#N)cc2[N+](=O)[O-])CC1 | 0.621%
CCOCCn1c(CN(Cc2ccccc2)Cc2ccccc2)nc2c1c(=O)[nH]c(=O)n2C | -36%
O=[N+]([O-])c1ccc2[nH]cc(S(=O)(=O)N3CCN(c4cccc(Cl)c4)CC3)c2c1 | 16.3%
O=C(O)CSCC(=O)N1CCN(c2nc3cc(Cl)ccc3s2)CC1 | 5.58%
Cc1cccc(NC(=O)c2c(-c3ccccc3)noc2C)n1 | -35.7%
CSc1cccc(NC(N)=S)c1 | 9.95%
COc1ccc(C(=O)NC(=O)NC2(C(Cl)(Cl)Cl)OCCO2)cc1 | 20.3%
CN(C)CCNC(=O)c1onc(CSc2ccncc2)c1C(=O)NCCN(C)C | -2.03%
Cc1cc(C)cc(Oc2ccc(S(=O)(=O)N3CCN(C)CC3)cn2)c1 | 4.78%
COc1ccccc1CC(=O)N1CCN(C(=O)c2ccco2)CC1 | 6.5%
CC(NC(=O)C(CC(=O)OC(C)(C)C)NC(=O)OC(C)(C)C)C(N)=O (stereo not shown) (Boc-Asp(OtBu)-Ala-NH2; configuration not given here) | -5.99%
CCOc1ccc(NC(=O)[C@H](Cc2ccccc2)NC(=O)C2CCNCC2)cc1 | 17.7%
COC(=O)[C@@]1(Cc2ccc(OC)cc2)[C@H]2c3cc(C(=O)N4CCCC4)n(C[C@H](O)CO)c3C[C@H]2CN1C(=O)c1ccccc1 | -1.32%
CC(Sc1nncn1C)C(=O)Nc1ccc(Cl)cn1 (stereo not shown) | 1.14%
O=C(CCCCCn1c(SCc2ccncc2)nc2ccccc2c1=O)NCc1ccco1 | -86%
CC(C)COc1cccc(C(=O)Nc2ccc(CN3CCOCC3)cc2)c1 | -30.1%
O=C(O)c1ccc(N=NN2CCCC2)cc1 | 33.6%
O=C(N/N=C/c1ccc(Cl)cc1)c1n[nH]c2c1CCCC2 | 5.74%
